According to the supplement of paper PMC8728848:
The list shows a part of the results.

Key:
Experiment in all cases: glycan array binding signal (z-score within array); higher = stronger binding
Conditions in all cases: glycan notation: IUPAC condensed, linker removed
[1] = target: Fuc(a1-2)[GalNAc(a1-3)]Gal(b1-3)GlcNAc(b1-3)GalNAc
In short: (§1)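 Negative Z-scores can be read as non-binding. The Z-score is calculated within each array and then averaged across arrays of one protein sequence at different concentrations or buffers and across linkers. Arrays, 3228 in all, were curated from the Consortium for Functional Glycomics database and kept only where the protein sequence was available.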

[2] = target: Fuc(a1-2)[GalNAc(a1-3)]Gal(b1-3)GlcNAc(b1-6)GalNAc
In short: as §1

[3] = target: Fuc(a1-2)[GalNAc(a1-3)]Gal(b1-4)Glc
In short: as §1

[4] = target: Fuc(a1-2)[GalNAc(a1-3)]Gal(b1-4)GlcNAc
In short: as §1

[5] = target: Fuc(a1-2)[GalNAc(a1-3)]Gal(b1-4)GlcNAc(b1-2)Man
In short: as §1

[6] = target: Fuc(a1-2)[GalNAc(a1-3)]Gal(b1-4)GlcNAc(b1-2)Man(a1-3)[Fuc(a1-2)[GalNAc(a1-3)]Gal(b1-4)GlcNAc(b1-2)Man(a1-6)]Man(b1-4)GlcNAc(b1-4)GlcNAc
In short: as §1

[7] = target: Fuc(a1-2)[GalNAc(a1-3)]Gal(b1-4)GlcNAc(b1-2)Man(a1-3)[Fuc(a1-2)[GalNAc(a1-3)]Gal(b1-4)GlcNAc(b1-2)Man(a1-6)]Man(b1-4)GlcNAc(b1-4)[Fuc(a1-6)]GlcNAc
In short: as §1

[8] = target: Fuc(a1-2)[GalNAc(a1-3)]Gal(b1-4)GlcNAc(b1-3)Gal(b1-4)GlcNAc
In short: as §1

[9] = target: Fuc(a1-2)[GalNAc(a1-3)]Gal(b1-4)GlcNAc(b1-3)Gal(b1-4)GlcNAc(b1-3)Gal(b1-4)GlcNAc
In short: as §1

[10] = target: Fuc(a1-2)[GalNAc(a1-3)]Gal(b1-4)GlcNAc(b1-3)GalNAc
In short: as §1

[11] = target: Fuc(a1-2)[GalNAc(a1-3)]Gal(b1-4)GlcNAc(b1-3)[Fuc(a1-2)[GalNAc(a1-3)]Gal(b1-4)GlcNAc(b1-6)]GalNAc
In short: as §1

[12] = target: Fuc(a1-2)[GalNAc(a1-3)]Gal(b1-4)GlcNAc(b1-6)GalNAc
In short: as §1

[13] = target: Fuc(a1-2)[GalNAc(a1-3)]Gal(b1-4)[Fuc(a1-3)]GlcNAc
In short: as §1

[14] = target: Fuc(a1-2)[GalNAc(a1-3)]Gal(b1-4)[Fuc(a1-3)]GlcNAc(b1-3)GalNAc
In short: as §1

[15] = target: Fuc(a1-2)[GalNAc(a1-4)]Gal(b1-4)GlcNAc
In short: as §1

[16] = target: Fuc(a1-2)[GalNAc(b1-3)]Gal
In short: as §1

[17] = target: Fuc(a1-3)GlcNAc
In short: as §1

[18] = target: Fuc(a1-3)[Gal(b1-4)]Glc6S
In short: as §1

[19] = target: Fuc(a1-3)[Gal(b1-4)]GlcNAc
In short: as §1

[20] = target: Fuc(a1-3)[Gal(b1-4)]GlcNAc(b1-2)Man
In short: as §1

[21] = target: Fuc(a1-3)[Gal(b1-4)]GlcNAc(b1-2)Man(a1-3)[Fuc(a1-3)[Gal(b1-4)]GlcNAc(b1-2)Man(a1-6)]Man(b1-4)GlcNAc(b1-4)GlcNAc
In short: as §1

[22] = target: Fuc(a1-3)[Gal(b1-4)]GlcNAc(b1-2)Man(a1-3)[Fuc(a1-3)[Gal(b1-4)]GlcNAc(b1-2)Man(a1-6)]Man(b1-4)GlcNAc(b1-4)[Fuc(a1-6)]GlcNAc
In short: as §1

[23] = target: Fuc(a1-3)[Gal(b1-4)]GlcNAc(b1-3)Gal(b1-3)[Fuc(a1-4)]GlcNAc
In short: as §1

[24] = target: Fuc(a1-3)[Gal(b1-4)]GlcNAc(b1-3)Gal(b1-4)[Fuc(a1-3)]GlcNAc
In short: as §1

[25] = target: Fuc(a1-3)[Gal(b1-4)]GlcNAc(b1-3)Gal(b1-4)[Fuc(a1-3)]GlcNAc(b1-3)Gal(b1-4)[Fuc(a1-3)]GlcNAc
In short: as §1

[26] = target: Fuc(a1-3)[Gal(b1-4)]GlcNAc(b1-3)GalNAc
In short: as §1

[27] = target: Fuc(a1-3)[Gal(b1-4)]GlcNAc(b1-6)GalNAc
In short: as §1

[28] = target: Fuc(a1-3)[Gal(b1-4)]GlcNAc(b1-6)[Gal(b1-3)GlcNAc(b1-3)]Gal(b1-4)Glc
In short: as §1

[29] = target: Fuc(a1-3)[Gal(b1-4)]GlcNAc6S
In short: as §1

[30] = target: Fuc(a1-3)[Gal3S(b1-4)]Glc
In short: as §1

[31] = target: Fuc(a1-3)[Gal3S(b1-4)]GlcNAc
In short: as §1

[32] = target: Fuc(a1-3)[Gal3S(b1-4)]GlcNAc6S
In short: as §1

[33] = target: Fuc(a1-3)[GalNAc(b1-4)]GlcNAc
In short: as §1

[34] = target: Fuc(a1-3)[GalNAc(b1-4)]GlcNAc6S
In short: as §1

[35] = target: Fuc(a1-4)GlcNAc
In short: as §1

[36] = target: Fuc(b1-3)GlcNAc
In short: as §1

[37] = target: Gal(a1-2)Gal
In short: as §1

B1: Clec2 (Mus musculus), Q9JL99 (protein)
chain: MQDEDGYITLNIKPRKQALSSAEPASSWWRVMALVLLISSMGLVVGLVALGIMSVTQQKYLLAEKENLSATLQQLAKKFCQELIRQSEIKTKSTFEHKCSPCATKWRYHGDSCYGFFRRNLTWEESKQYCTEQNATLVKTASQSTLDYIAERITSVRWIGLSRQNSKKDWMWEDSSVLRKNGINLSGNTEENMNCAYLHNGKIHPASCKERHYLICERNAGMTRVDQLL
glycan array binding signal (z-score) [1]: 0.099
glycan array binding signal (z-score) [2]: -0.229
glycan array binding signal (z-score) [3]: -0.085
glycan array binding signal (z-score) [4]: -0.676
glycan array binding signal (z-score) [5]: -0.415
glycan array binding signal (z-score) [6]: -0.197
glycan array binding signal (z-score) [7]: 0.116
glycan array binding signal (z-score) [8]: -0.909
glycan array binding signal (z-score) [9]: -0.74
glycan array binding signal (z-score) [10]: -0.594
glycan array binding signal (z-score) [11]: -0.335
glycan array binding signal (z-score) [12]: -0.476
glycan array binding signal (z-score) [13]: 0.176
glycan array binding signal (z-score) [14]: 0.27
glycan array binding signal (z-score) [15]: -0.573
glycan array binding signal (z-score) [16]: -0.246
glycan array binding signal (z-score) [17]: -0.682
glycan array binding signal (z-score) [18]: 0.892
glycan array binding signal (z-score) [19]: 0.172
glycan array binding signal (z-score) [20]: 0.349
glycan array binding signal (z-score) [21]: -0.308
glycan array binding signal (z-score) [22]: 0.795
glycan array binding signal (z-score) [23]: -0.589
glycan array binding signal (z-score) [24]: -0.149
glycan array binding signal (z-score) [25]: -0.451
glycan array binding signal (z-score) [26]: -0.696
glycan array binding signal (z-score) [27]: -0.127
glycan array binding signal (z-score) [28]: -0.608
glycan array binding signal (z-score) [29]: 0.099
glycan array binding signal (z-score) [30]: 0.087
glycan array binding signal (z-score) [31]: -0.052
glycan array binding signal (z-score) [32]: 0.55
glycan array binding signal (z-score) [33]: 0.081
glycan array binding signal (z-score) [34]: 0.036
glycan array binding signal (z-score) [35]: -0.225
glycan array binding signal (z-score) [36]: -0.556
glycan array binding signal (z-score) [37]: 0.521
